This note sets out measurements from the supplement of paper PMC12067230.

Single values of this set are uncertain.
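Note: [psi-pin-] Saccharomyces cerevisiae expressing SupN fusions, induced by 100 µM Cu2SO4, selected 7 d at 30 °C without adenine and uracil, scored by deep sequencing of output versus input.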

A short description of one data set: amyloid nucleation score relative to library mode (yeast Sup35 reporter selection) (log enrichment difference); higher = more amyloid nucleation; sequences are the first 22 residues of the Bri2 peptide extended by up to 12 random residues. Conditions: random library (experiment): 1;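 active = nucleation score significantly above 0 at FDR 0.05; inactive = not significantly above 0 or absent from output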.
In the case of EASNCFAIRHFENKFAVETLICVGDGSTSWERRL, the amyloid nucleation score result was “inactive”. EASNCFAIRHFENKFAVETLICVGDIRVHKSVGG returned an amyloid nucleation score of 6.91. Same read-out and setting: the value for EASNCFAIRHFENKFAVETLICVGDM was “inactive”; that for EASNCFAIRHFENKFAVETLICVGDVPFLFGSLR was 4.35.

As to EASNCFAIRHFENKFAVETLICVGEQRYHSLLLA, the amyloid nucleation score result was “inactive”. EASNCFAIRHFENKFAVETLICVGETALSRKGAR yielded an amyloid nucleation score of 0.243.

For EASNCFAIRHFENKFAVETLICVGFSHVVLWLEG, the amyloid nucleation score result is “inactive”. On the same count and under the same terms, the value for EASNCFAIRHFENKFAVETLICVGGARECIQARL was 0.0711. As for EASNCFAIRHFENKFAVETLICVGGATPAQCGHG, the amyloid nucleation score entry is “inactive”.

On to EASNCFAIRHFENKFAVETLICVGGP, for which the amyloid nucleation score is -0.265. As for EASNCFAIRHFENKFAVETLICVGGPGHSGVPPS, the amyloid nucleation score entry was “inactive”. Turning to EASNCFAIRHFENKFAVETLICVGHR, the amyloid nucleation score result was “inactive”.

Turning to EASNCFAIRHFENKFAVETLICVGHSLCFNLSSP, the amyloid nucleation score came out at 4.5. For EASNCFAIRHFENKFAVETLICVGITLFRVGWAL, the amyloid nucleation score result was “inactive”. On to EASNCFAIRHFENKFAVETLICVGKCLI, for which the amyloid nucleation score result was “inactive”.

EASNCFAIRHFENKFAVETLICVGKVDDVDTRGR had an amyloid nucleation score of 0.636. For EASNCFAIRHFENKFAVETLICVGLAGWVTWARC, the amyloid nucleation score entry was “inactive”. Still for that read-out and setting: then EASNCFAIRHFENKFAVETLICVGLETKEVGLGT, with “inactive”. On the same count and under the same terms, then EASNCFAIRHFENKFAVETLICVGLGTSRYRDCC, with 1.23; and EASNCFAIRHFENKFAVETLICVGLLSNVFFDVS, with “inactive”; and EASNCFAIRHFENKFAVETLICVGLSDML, with “inactive”.

On to EASNCFAIRHFENKFAVETLICVGM, for which the amyloid nucleation score entry is “inactive”. Same read-out and setting: then EASNCFAIRHFENKFAVETLICVGMDFSVPSDHR, with “inactive”; and EASNCFAIRHFENKFAVETLICVGMMWVRARMEV, with “inactive”. Regarding EASNCFAIRHFENKFAVETLICVGQDEY, the amyloid nucleation score entry is “inactive”. As for EASNCFAIRHFENKFAVETLICVGQFFVVSGYPQ, the amyloid nucleation score stood at 6.08. For EASNCFAIRHFENKFAVETLICVGQKLHNAWPML, the amyloid nucleation score result was “inactive”.

Consider EASNCFAIRHFENKFAVETLICVGQVPRGRSRSV, for which the amyloid nucleation score result was “inactive”.

For EASNCFAIRHFENKFAVETLICVGRRMHSRPMYG, the amyloid nucleation score result was “inactive”. As to EASNCFAIRHFENKFAVETLICVGRVRRPMLEAC, the amyloid nucleation score entry is “inactive”. On the same count and under the same terms, the value for EASNCFAIRHFENKFAVETLICVGSALLTHATLP was “inactive”; that for EASNCFAIRHFENKFAVETLICVGSCTSFAAMDT was “inactive”; that for EASNCFAIRHFENKFAVETLICVGSFGSNGHVAC was “inactive”.

As to EASNCFAIRHFENKFAVETLICVGTAKMLLPRLP, the amyloid nucleation score was found to be 0.247. On the same count and under the same terms, then EASNCFAIRHFENKFAVETLICVGTGCLSRRACE, with “inactive”. The same measure, in the same setting: the value for EASNCFAIRHFENKFAVETLICVGTGRRADRVCE was -0.273.

Turning to EASNCFAIRHFENKFAVETLICVGTVYQRGSDKV, the amyloid nucleation score was found to be 7.37.

Staying with this data set, now noted: random library (experiment): 2.
The sequence EASNCFAIRHFENKFAVETLICVGCSSLVRNASF showed an amyloid nucleation score of 7.

As to EASNCFAIRHFENKFAVETLICVGEISL, the amyloid nucleation score is 4.8. For EASNCFAIRHFENKFAVETLICVGFIWSNTNSVV, the amyloid nucleation score was 7.52. The same measure, in the same setting: then EASNCFAIRHFENKFAVETLICVGFMDSMLTIGV, with “inactive”.

Regarding EASNCFAIRHFENKFAVETLICVGGNCDMVVPNG, the amyloid nucleation score was -0.0862. Still for that read-out and setting: then EASNCFAIRHFENKFAVETLICVGHSGLG, with “inactive”; and EASNCFAIRHFENKFAVETLICVGISDSTGYLGF, with -0.531. On the same count and under the same terms, the value for EASNCFAIRHFENKFAVETLICVGKV was “inactive”; that for EASNCFAIRHFENKFAVETLICVGLTCTEGSVCI was 6.38. With EASNCFAIRHFENKFAVETLICVGMFLTSGMILA, the amyloid nucleation score entry is “inactive”. As for EASNCFAIRHFENKFAVETLICVGMWIMYGMETR, the amyloid nucleation score entry is “inactive”.

As to EASNCFAIRHFENKFAVETLICVGMWVFVRCFMR, the amyloid nucleation score entry was “inactive”. On the same count and under the same terms, the value for EASNCFAIRHFENKFAVETLICVGNSDSCMRVKG was “inactive”; that for EASNCFAIRHFENKFAVETLICVGP was “inactive”; that for EASNCFAIRHFENKFAVETLICVGREVV was “inactive”. The same measure, in the same setting: then EASNCFAIRHFENKFAVETLICVGRGVG, with “inactive”; and EASNCFAIRHFENKFAVETLICVGSECGLHLRRP, with -0.174. The sequence EASNCFAIRHFENKFAVETLICVGSSTSWMQLAL displayed an amyloid nucleation score of 2.85.

EASNCFAIRHFENKFAVETLICVGSTLVVFSFVH: the amyloid nucleation score was 3.86.

EASNCFAIRHFENKFAVETLICVGTEKD returned an amyloid nucleation score of 1.22. As for EASNCFAIRHFENKFAVETLICVGTLVIYEERKA, the amyloid nucleation score stood at 8.95.

The data set is the same for the next values; noted with them: random library (experiment): 3.
In turn, EASNCFAIRHFENKFAVETLICVGEARFGLGLTP yielded an amyloid nucleation score of 7.87. Still for that read-out and setting: the value for EASNCFAIRHFENKFAVETLICVGKNRLSVCTLI was “inactive”; that for EASNCFAIRHFENKFAVETLICVGLAKRGVEDGW was “inactive”. For EASNCFAIRHFENKFAVETLICVGLSHLRGAERT, the amyloid nucleation score was -0.119. The same measure, in the same setting: the value for EASNCFAIRHFENKFAVETLICVGLVYAARYGDR was “inactive”; that for EASNCFAIRHFENKFAVETLICVGMAVWVAGLLL was “inactive”. With EASNCFAIRHFENKFAVETLICVGQDLPPHLGVS, the amyloid nucleation score result was “inactive”. Same read-out and setting: then EASNCFAIRHFENKFAVETLICVGQRKVLQASPA, with “inactive”; and EASNCFAIRHFENKFAVETLICVGQSACDQASGG, with “inactive”; and EASNCFAIRHFENKFAVETLICVGRKVKGFAGAG, with “inactive”. On the same count and under the same terms, the value for EASNCFAIRHFENKFAVETLICVGRLRTRRGRPE was 1.32.

Turning to EASNCFAIRHFENKFAVETLICVGRVGSGCWRVG, the amyloid nucleation score is 4.45. Same read-out and setting: the value for EASNCFAIRHFENKFAVETLICVGSPWTYVRSEK was 4.68; that for EASNCFAIRHFENKFAVETLICVGSSYRVNRAYI was “inactive”.

With EASNCFAIRHFENKFAVETLICVGTDLGYDTLYS, the amyloid nucleation score entry was “inactive”. On to EASNCFAIRHFENKFAVETLICVGTFCVGMWHRR, for which the amyloid nucleation score entry was “inactive”.
